Source: PMC4336329 (PLoS ONE, 2015)
Hit rate of the full screen: of about 310,000 compounds, about 2,200 (0.71%) showed an effect of 50% or more. Effects have a minus sign here. The list shows a part of the results.

molecular target: human ether-à-go-go-related gene (hERG) potassium channel (human, UniProt Q12809); test: primary screen, population patch clamp on CHO cells stably expressing hERG
Sequence (Q12809 whole entry, looked up): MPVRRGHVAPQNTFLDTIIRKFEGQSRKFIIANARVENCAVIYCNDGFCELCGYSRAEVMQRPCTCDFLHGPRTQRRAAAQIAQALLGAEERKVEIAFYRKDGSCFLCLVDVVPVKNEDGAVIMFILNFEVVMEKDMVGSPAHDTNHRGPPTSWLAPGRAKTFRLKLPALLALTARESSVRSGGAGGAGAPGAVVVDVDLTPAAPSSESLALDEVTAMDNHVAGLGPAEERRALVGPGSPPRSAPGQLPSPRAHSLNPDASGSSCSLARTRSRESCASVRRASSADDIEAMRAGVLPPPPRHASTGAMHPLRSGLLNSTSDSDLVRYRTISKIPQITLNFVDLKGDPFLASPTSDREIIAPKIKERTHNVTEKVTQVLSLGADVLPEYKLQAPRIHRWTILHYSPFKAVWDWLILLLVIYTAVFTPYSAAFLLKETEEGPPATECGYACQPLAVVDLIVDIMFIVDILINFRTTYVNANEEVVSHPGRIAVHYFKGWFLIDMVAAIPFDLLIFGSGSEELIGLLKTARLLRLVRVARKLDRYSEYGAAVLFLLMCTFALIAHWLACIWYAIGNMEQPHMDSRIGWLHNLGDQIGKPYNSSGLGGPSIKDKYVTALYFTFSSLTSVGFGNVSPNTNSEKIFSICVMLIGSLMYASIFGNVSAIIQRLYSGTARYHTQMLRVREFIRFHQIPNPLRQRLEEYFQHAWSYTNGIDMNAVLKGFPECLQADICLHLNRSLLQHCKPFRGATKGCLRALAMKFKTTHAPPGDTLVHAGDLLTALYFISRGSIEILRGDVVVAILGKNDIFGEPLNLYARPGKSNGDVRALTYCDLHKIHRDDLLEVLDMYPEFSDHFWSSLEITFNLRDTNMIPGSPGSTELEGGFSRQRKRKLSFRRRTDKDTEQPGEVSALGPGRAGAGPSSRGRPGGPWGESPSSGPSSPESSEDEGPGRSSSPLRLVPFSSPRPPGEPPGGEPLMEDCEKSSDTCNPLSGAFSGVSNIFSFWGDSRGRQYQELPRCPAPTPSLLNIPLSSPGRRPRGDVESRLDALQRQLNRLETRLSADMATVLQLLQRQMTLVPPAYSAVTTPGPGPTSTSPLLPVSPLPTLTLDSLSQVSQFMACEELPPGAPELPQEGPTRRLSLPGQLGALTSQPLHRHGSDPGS

Row | Compound | hERG current change (%, negative = inhibition) at 1uM [%]
1 | O=C(Nc1ccc2c(c1)C(=O)OC2)c1ccc(Cl)cc1Cl | 3.09
2 | O=C(Cn1cnc2ccccc2c1=O)NCCC(=O)N1CCC2(CC1)OCCO2 | 15.6
3 | Cc1ccc(NS(=O)(=O)c2ccc(-c3ccc(=O)[nH]n3)o2)cc1N(C)C | 2.08
4 | Cc1ccc(NC(=O)CCC(=O)N/N=C/c2cccnc2)cc1 | 10.5
5 | CCCCNC(=O)NS(=O)(=O)c1ccc(C)cc1 | 12
6 | COc1ccccc1OCC(=O)NCC1CCCN(Cc2cnn(C(C)C)c2)C1 (centres unmarked) | 14.6
7 | Cc1cc(C)nc(SCC(=O)NNC(=O)c2ccccc2C)n1 | 7.91
8 | CSc1c(SCc2ccccc2)cnn(Cc2ccccc2)c1=O | 0.464
9 | Cn1nnnc1NCc1cccc(Cl)c1Cl | 7.72
10 | CN(C(=O)c1cnccn1)c1nnc(-c2cnccn2)s1 | 14.8
11 | Cc1cccc(C)c1NC(=O)Cn1cc(C=O)c2ccccc21 | 14.3
12 | O=S(=O)(NCC1CCCO1)c1cccc(C(F)(F)F)c1 (centres unmarked) | 3.89
13 | Cc1cccc(C)c1NC(=O)CN1CCN(C(=O)CNC(=O)c2ccc(N3CCCC3=O)cc2)CC1 | 11.2
14 | COc1cc(NC(=O)c2cccc(F)c2)cc(OC)c1OC | 13.7
15 | COc1ccc(Oc2cnc3ccccc3n2)cc1 | 13.7
16 | CC[n+]1ccc(/C=C/c2c[nH]c3ccccc23)cc1.[Cl-] | 5.01
17 | Cc1cccc(N2CCN(C(=O)c3ccc4nc[nH]c4c3)CC2)c1C | -1.36
18 | CN1CCc2c(sc3nc(SCC(N)=O)n(-c4ccc(Cl)cc4)c(=O)c23)C1 | 8.97
19 | COc1ccc(OC)c(-c2cc(C(=O)NCc3ccco3)no2)c1 | 0.616

Row | Compound | hERG current change (%, negative = inhibition) at 1uM [%]
20 | Nc1ccc(-c2nc3ccc(N)cc3[nH]2)cc1 | 8.84
21 | COc1ccccc1CNC(=O)CN(C)S(=O)(=O)c1ccc(Br)s1 | 4.61
22 | O=C(N/N=C/c1cccc(OC(=O)c2cccc(Br)c2)c1)c1ccncc1 | 6.45
23 | C=CCOc1c(CNn2nnnc2N)cccc1OC | 6.29
24 | NC(=S)N/N=C/c1cc([N+](=O)[O-])ccc1OCCOc1ccccc1 | 6.76
25 | CC(=O)Nc1cccc(NC(=O)CSc2ncc(-c3ccc(Cl)cc3)n2Cc2ccco2)c1 | 2.89
26 | O=C(CN1C(=O)COc2ccccc21)NCCCN1CCN(c2ccccc2F)CC1 | 6.87
27 | C/C(CC(=O)NC(C)C)=N\NC(=O)C(c1ccccc1)c1ccccc1 | 1.17
28 | CCN1C(=O)N/C(=C/c2cc(C)n(Cc3ccccc3)c2C)C1=O | 8.98
29 | CC1CC(C)CN(C(=O)C2CCN(S(=O)(=O)c3cccc4cccnc34)CC2)C1 (centres unmarked) | 12.5
30 | O=C(Nc1cccnc1)c1cn(-c2ccccc2)nc1-c1cccs1 | 10.1
31 | O=C(N/N=C/c1ccncc1)c1nc2ccccc2c(=O)[nH]1 | 11.9
32 | COc1cc(OC)c2ccc(=O)oc2c1C(CC(=O)N1CCOCC1)c1ccc(N(C)C)cc1 (centres unmarked) | 21.8
33 | COc1cccc2c1SCc1ccccc1C2CC(N)=O (centres unmarked) | 11.6
34 | OC1=C(O)c2nc3ccccc3nc21 | 1.65
35 | CCOc1ccc(CCNC(=O)CCc2nnc3ccc(N4CCOCC4)nn23)cc1OCC | 7.73
36 | O=C(CNC(=O)c1ccc(S(=O)(=O)N2CCCC2)cc1)N/N=C/c1ccc(Cl)cc1Cl | 3.52
37 | Cc1ccc2c(c1)cc(CN(Cc1cccs1)C(=O)c1ccco1)c1nnnn12 | 1.11
38 | COc1ccc(-c2cc(C(F)(F)F)nc(N3CCOCC3)n2)cc1OC | 9.61

Row | Compound | hERG current change (%, negative = inhibition) at 1uM [%]
39 | CCN1CCN(Cc2ccc(NC(=O)Nc3ccc(OC)cc3)cc2)CC1 | 0.627
40 | O=C(O)CC/C(=N\NC(=O)c1ccccc1)c1cccs1 | 6.25
41 | O=C(Nc1cc(C(F)(F)F)ccc1N1CCOCC1)c1cncc(Br)c1 | -10.2
42 | CCOc1ccccc1N1CCN(C(=O)C(Sc2ccccc2)c2ccccc2)CC1 (centres unmarked) | 11.5
43 | Cc1cc(NC(=O)CCC(=O)N(CC(=O)NCC2CCCO2)c2ccc(C)c(C)c2)no1 (centres unmarked) | 8.07
44 | CCC(Sc1nc2cc(OC)c(OC)cc2c(=O)n1Cc1ccco1)C(=O)NCCOC (centres unmarked) | -4.36
45 | O=C(Nc1ccc(Cl)cc1)N1CCSc2ccccc21 | -0.071
46 | COc1ccc(-n2c(CCc3ccccc3)nnc2SCC(=O)c2ccccc2)cc1 | 1.06
47 | COc1ccc(CC(=O)Nc2ccc(-c3noc(-c4cc(OC)c(OC)c(OC)c4)n3)cc2)cc1 | 3.62
48 | Cc1cc(C)[n+](-c2ccc(F)cc2)c2[nH]c(=O)[nH]c(=O)c12.[I-] | 5.63
49 | COc1cccc(/C=N/NC(=O)C(=O)NCc2cccnc2)c1OC | 14.3
50 | O=C(OCc1ccccc1)c1cc(S(=O)(=O)N2CCCCC2)ccc1N1CCOCC1 | -3.08
51 | CS(=O)(=O)Nc1ccc(C2=NN(C(=O)c3ccco3)C(c3ccc(F)cc3)C2)cc1 (centres unmarked) | -44.7
52 | CC(=O)Nc1ccc(NC(=O)c2c(C)nn(Cc3ccccc3Cl)c2C)cc1 | -0.476
53 | COc1ccc(Cc2nnc(SCC(=O)NC3CCCC3)o2)cc1 | 5.22
54 | O=C(Nc1nc2ccc([N+](=O)[O-])cc2s1)C1CCCO1 (centres unmarked) | 4.84
55 | CC(C)(C)C1CCC(C(=O)OCC(=O)N2CCN(C(=O)c3ccco3)CC2)CC1 (centres unmarked) | 3.14
56 | COc1ccc(OC)c(-n2c(-c3ccc(C)cc3)n[nH]c2=S)c1 | 0.571
